Values of other authors in publication PMC11852049, “Impact of Hydrophobic, Hydrophilic, and Mucus-Binding Motifs on the Therapeutic Potential of Ceftazidime Analogs for Pulmonary Administration” (Antibiotics, 2025).

Settings: cited from earlier work

## CC(C)(O/N=C(\C(=O)N[C@@H]1C(=O)N2C(C(=O)[O-])=C(C[n+]3ccccc3)CS[C@H]12)c1csc(N)n1)C(=O)O [Ceftazidime pentahydrate, ceftazidime pentahydrate, reference compound]
  LogP: −1.60
